Assay results reported in the supplement of paper PMC11348887.
Structures can show the parent of a compound that is named as a salt. This is one part of the list. No stated cut-off is given here; in the data, active = -2 or less and inactive = the rest. Repeats are few or missing, and single values can be far off.

These molecules were tested on hPSC-derived cortical neurons (WA09) (assay: nuclei number (viability) z-score; higher = more surviving cells). Conditions: 5 µM; treatment: days 7-14 after plating, readout day 21.
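Further: nuclei counted from DAPI counterstain by automated high-content image analysis, four fields per well at ×20 in 384-well plates, with sequential b-score then z-score normalization.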

Row | SMILES | nuclei number (z-score)
1 | COc1ccc(C(C)=O)c(O)c1 [Paeonol] | inactive: 0.233
2 | COc1ccc(CCCOC(Cn2ccnc2)c2ccc(OC)cc2)cc1 (centres undefined) | inactive: -0.422
3 | COc1c(O)cc2c(c1O)[C@@H]1O[C@H](CO)[C@@H](O)[C@H](O)[C@H]1OC2=O [Bergenin] | inactive: 0.902
4 | Nc1cccc(-c2cc3c(Oc4cccc(O)c4)ncnc3[nH]2)c1 | inactive: 0.24
5 | CC(C)[C@H]1CC[C@H](C(=O)N[C@H](Cc2ccccc2)C(=O)O)CC1 [Nateglinide] | inactive: -0.489
6 | CCCCOc1ccc(OCCCN2CCOCC2)cc1 [Pramoxine HCl] | inactive: -0.0206
7 | C[C@@H](O)[C@H]1C(=O)N2C(C(=O)OCOC(=O)C(C)(C)C)=C(SC3CN(C4=NCCS4)C3)[C@H](C)[C@H]12 [Tebipenem Pivoxil] | inactive: 0.0777
8 | CC1CCc2cc(F)cc3c(=O)c(C(=O)O)cn1c23 (centres undefined) [Flumequine] | inactive: 0.264
9 | CCCS(=O)(=O)Nc1ccc(F)c(C(=O)c2c[nH]c3ncc(Cl)cc23)c1F | inactive: 1.94
10 | CCN1CCCC1CNC(=O)c1cc(S(=O)(=O)CC)c(N)cc1OC (centres undefined) [Amisulpride] | inactive: -0.255
11 | CC(C)(CO)C(O)C(=O)NCCCO (racemic) [DL-Panthenol] | inactive: 0.567
12 | Nc1nc(N)nc(-c2cc(Cl)ccc2Cl)n1 [Irsogladine] | inactive: 1.56
13 | CNC(=O)CN1CCC(Oc2cc3c(Nc4cccc(Cl)c4F)ncnc3cc2OC)CC1 [AZD8931 (Sapitinib)] | inactive: 2.61
14 | O=C(Nc1cc(Cl)cc2c1[nH]c1cnccc12)c1cccnc1 | inactive: 3.38
15 | CCc1c(C(=O)NCCc2ccc(N3CCCCC3)cc2)[nH]c2ccc(Cl)cc12 | inactive: -0.285
16 | CN1CCN(c2ccc(C(=O)Nc3n[nH]c4ccc(Cc5cc(F)cc(F)c5)cc34)c(NC3CCOCC3)c2)CC1 [Entrectinib (RXDX-101)] | active: -5.3
17 | Nc1ncnc2c1c(-c1cccc(OCc3ccccc3)c1)cn2C1CC(CN2CCCC2)C1 (centres undefined) | active: -3.4
18 | O=C(Nc1cccc(Cl)c1)Nc1ncc(CCNc2ncnc3ccsc23)s1 [SNS-314 Mesylate] | inactive: 1.55
19 | CNC(=O)c1ccc(N2C(=S)N(c3cnc(C#N)c(C(F)(F)F)c3)C(=O)C23CCC3)cc1F | inactive: 1.13
20 | O=C(c1ccc(OCCN2CCCCC2)cc1)c1c(-c2ccc(O)cc2)sc2cc(O)ccc12 [Raloxifene HCl] | inactive: -0.108
21 | CO[C@H]1CC[C@H](N2C(=O)CNc3ncc(-c4ccc(C(C)(C)O)nc4)nc32)CC1 | active: -6.12
22 | CCOc1cc(N2CCC(O)CC2)ccc1Nc1ncc2c(n1)N(C)c1ccccc1C(=O)N2C | inactive: -0.864
23 | Fc1ccc2[nH]ccc2c1-c1nc(N2CCOCC2)c2sc(CN3CCN(CC4CC4)CC3)cc2n1 | inactive: -0.554
24 | CC(CN1c2ccccc2Sc2ccccc21)N(C)C (centres undefined) [Promethazine HCl] | inactive: -0.0641
25 | CNC(=O)c1ccccc1Sc1ccc2c(/C=C/c3ccccn3)n[nH]c2c1 [Axitinib] | inactive: 0.215

Row | SMILES | nuclei number (z-score)
26 | Cc1ccc(NC(=O)Nc2cc(C(F)(F)F)ccc2F)cc1Nc1ccc2c(c1)NC(=O)/C2=C\c1ccc[nH]1 | active: -3.71
27 | CCOC(=O)C1=C(C)NC(C)=C(C(=O)OC)C1c1cccc([N+](=O)[O-])c1 (centres undefined) [Nitrendipine] | inactive: 4.47
28 | CCn1cc(C(=O)O)c(=O)c2cc(F)c(N3CCNCC3)cc21 [Norfloxacin] | inactive: -0.561
29 | COC1(c2sc3c(N4CCOCC4)nc(-c4cnc(N)nc4)nc3c2C)COC1 | inactive: -0.776
30 | c1ccc2c(-c3cnn4cc(-c5ccc(N6CCNCC6)cc5)cnc34)ccnc2c1 | active: -5.7
31 | CC(C)(Oc1ccc(C2CC2(Cl)Cl)cc1)C(=O)O (centres undefined) [Ciprofibrate] | inactive: 0.666
32 | CC(C)C[C@H](NC(=O)c1cc2ccccc2s1)C(=O)N1CCN(C(=O)[C@H](CO)NS(=O)(=O)c2ccc(Cl)cc2Cl)CC1 | inactive: 0.207
33 | CC(C)[C@H](NC(=O)c1ccc2ccccc2n1)C(=O)N[C@@H](CC(=O)O)C(=O)COc1c(F)cccc1F | inactive: 0.35
34 | C=CCN1CCCC1CNC(=O)c1cc2nn[nH]c2cc1OC (centres undefined) [Alizapride HCl] | inactive: 0.682
35 | Nc1nc(Nc2ccc(S(N)(=O)=O)cc2)nn1C(=O)c1c(F)cccc1F | inactive: -0.81
36 | CO[C@@H](C)Cn1c(=O)n(C)c2cnc3ccc(-c4cncc(C(C)(C)O)c4)cc3c21 | active: -3.99
37 | CC(C)c1onc(-c2c(Cl)cccc2Cl)c1COc1ccc(/C=C/c2cccc(C(=O)O)c2)c(Cl)c1 | inactive: 8.01
38 | NC(=O)CCCSc1nc(N)nc(-c2c(Cl)cc3c4c(cccc24)COC3)n1 | active: -7
39 | N#CC(=C(/N)Sc1ccccc1N)/C(C#N)=C(\N)Sc1ccccc1N | inactive: -0.364
40 | COc1ccc(CNCc2cccc3ccccc23)cc1 | inactive: 0.877
41 | NC(=O)[C@@H](CCC(F)(F)F)N(Cc1ccc(-c2ncon2)cc1F)S(=O)(=O)c1ccc(Cl)cc1 | inactive: 0.346
42 | Cc1[nH]c(/C=C2\C(=O)Nc3ccc(S(=O)(=O)Cc4c(Cl)cccc4Cl)cc32)c(C)c1C(=O)N1CCC[C@@H]1CN1CCCC1 | active: -4.56
43 | Cc1c(Cn2c(C)nc3c(C(=O)O)cc(N4CCOCC4)cc32)cccc1C(F)(F)F | inactive: 0.452
44 | O=C(NCc1ccc(Oc2ccccc2)cc1)c1nc(-c2cc(Br)c(O)c(Br)c2)no1 | inactive: 0.0238
45 | CCCCCCCCCCCCCCCC[N+](C)(C)C [Cetrimonium Bromide (CTAB)] | active: -7.92
46 | S=c1nc[nH]c2nc[nH]c12 [6-Mercaptopurine (6-MP) Monohydrate] | inactive: -0.0883
47 | Nc1nccs1 [Aminothiazole] | inactive: -0.675
48 | NC(=O)c1cccnc1 [Nicotinamide (Vitamin B3)] | inactive: 1.77
49 | CCCc1nc(C(C)(C)O)c(C(=O)OCc2oc(=O)oc2C)n1Cc1ccc(-c2ccccc2-c2nnn[nH]2)cc1 [Olmesartan Medoxomil] | inactive: 0.618
